# Measured values: the supplement of paper PMC11417369
# The other results are listed elsewhere or left out.
# System: PfAP2-HC AP2 domain (GST-tagged)
# Assay: gcPBM binding intensity (ln(normalized median fluorescence intensity)); higher = stronger DNA binding
# In short: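 Using an Agilent 4 × 180k array, primer-extended double-stranded 36-bp intergenic genomic probes and negative controls were exposed for 1 h to GST-fused P. falciparum DNA-binding domains expressed in E. coli. Binding was carried out in 1× PBS with 1% milk, 0.2 mg/ml BSA, 0.5% salmon testes DNA and 0.03% Triton X-100, and protein was detected with Alexa488 anti-GST antibody and a 488 nm scan. Binding intensity is the highest Masliner-normalised natural-log median intensity across replicate spots of either probe orientation.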
row,Sequence,gcPBM binding intensity (ln)
1,TACATGATAGATCACACACACATATAAATATATATA [CACACA_site5562],10.2
2,TAAAATAACTCACAAAGTACAAAAATAAGCATATGA [XGTACX_site7046],9.79
3,ACATAAGACACAAATACACACAAAAATATATAACAA [CACACA_site4082],10.2
4,AACAATATGGATGTATGTACACATATAGAACGTTAT [XGTACX_site7142],10.2
5,TATGCATTTATGCATTGTACTTTTATAGATTCCACC [XGTACX_site7121],9.33
6,ATATTATATATACACGCACACACACTAATATATATA [CACACA_site9092],10.4
7,GAAATTTTATTACTTTTACACACCTATATATTATTC [CACACA_site9076],9.87
8,TACAAAAAAAAAGAACGTACAAAAAATTTCAAAAAT [XGTACX_site5860],9.73
9,TTAAACTATACCAAAACACACATACAAAATATAAAA [CACACA_site5494],10.2
10,TATGTATATATATTAACACACAAAAAAAAAAAAAAA [CACACA_site1812],9.55
11,ATGAACGGAAAAATATATATAAATATATATATCATG [XGTACX_negctrl_site342],9.86
12,AAAAATTTTCAAGTGTGTACATATTTTCATTTAACA [XGTACX_site6186],9.63
13,AAATATATATTCATGTGTACACACAAAAAAAAATAA [XGTACX_site4552],10.2
14,AAGAAAAAGTATCCTCTATCTTTATATAAACTATTA [TGCATGCA_negctrl_site2],9.57
15,ATGTATATATTTTTATGTACATATTTTTAATTTATA [XGTACX_site2982],9.64
16,CATACATATACTTTGTGTACATATATATATTATATA [XGTACX_site97],9.69
17,TAATAAAAAATTAAAAAAAATAAAAATAAAAATAAA [GTGCAC_negctrl_site78],9.42
18,TTTATACTTTTAAATTGTACTATAAAAAGGAATACA [XGTACX_site2537],9.32
19,TTTTTATTTAGCTAAGCATGCTAACGATGACACTTC [TGCATGCA_site79],9.7
20,GAATATTCAACATAATGTACAAGTATTCATTTCTTT [XGTACX_site7860],9.53
21,CAAAAATAAAAGAAATGTACAAAAAATAATAAAAAA [XGTACX_site6597],9.73
22,TAATAAACTTAAAAATGTACATATATTTATTATTAC [XGTACX_site4321],9.61
23,AAAATTCATAAATACACACACGCACATATATATATA [CACACA_site4227],10.2

row,Sequence,gcPBM binding intensity (ln)
1,AAGAAAATGTATATATGTACATACAATCAAAAGAAG [XGTACX_site3454],9.96
2,ATCTGTACAGTTTTTGCACACATATAAATAAAAAAA [CACACA_site9198],9.79
3,TATTTACAAATAAAAAGTACATAAACTAATATCTTT [XGTACX_site2181],9.56
4,TTGTTTGTAAACAGATGTACATATAAAAATATATAT [XGTACX_site3370],9.7
5,TATATTAGAAAGGATACACACATATATAAATATCTA [CACACA_site6411],9.79
6,ATATATATATATATATGTACATATATTTGTAATGTC [XGTACX_site8074],10.2
7,TTTATTATGTAAGCATGTACATGATGTATATATTTA [XGTACX_site5021],9.73
8,CACAGACACGGACACACACACACACCGATATATATA [CACACA_site4353],11.2
9,ATTTTTTAAAATATTTGTACATATATAATGCATATA [XGTACX_site7026],9.49
10,TAAATACTTATATGTACACACATATAGATATATATT [CACACA_site2553],9.81
11,ATATAAATAAATGTATGTACATATATTTATATGCAT [XGTACX_site4185],9.67
12,GAAAAATTGAATTTGGGTACATATAAATATTATATT [XGTACX_site2363],9.54
13,ATAAATATTAGCAGTTGTACAATAAATATATGTAAT [XGTACX_site2534],9.83
14,TTAGATATAAAAGCATGTACTTGTATAAAATATATA [XGTACX_site8272],9.59
15,TTCCCTATATAGAGCATGCACTATATTCAAATGATG,9.64
16,TTATCAAATGAGTGTTGTACGTCTTTTGAAATACCA [XGTACX_site8804],9.42
17,TCAGATCCATAGAAGGTGCAAATAACAAAAATACAA [GTGCAC_site9610],9.86
18,TAATTTTTCTTATATAGTACACAAAAAGAAAATTAC [XGTACX_site6393],9.37
19,AAAATGTTTTTATCCAGTACATAAATATATATATAT [XGTACX_site7398],9.58
20,TATGAACACCCAAATACACACACTCAAAAAAAAAAA [CACACA_site5466],10.4
21,AAAAACTATTGTAGGACACACAAAATTCCAATTTTA [CACACA_site1701],9.82
22,AAGTAATTTATGCATACACACATATATAAATATGTA [CACACA_site7813],9.81
23,ATATATATAAAACACACACACACATGTTTTAAAACT [CACACA_site78],10.5

row,Sequence,gcPBM binding intensity (ln)
1,TATATATATATTTATACACACATTAGTGTATACATG [CACACA_site2950],9.87
2,CACAAAAAGAAACACACACACATATATATTTATTAT [CACACA_site3646],10.3
3,AAATAAATGTTATGCATACACACTTTATACCTATTT [CACACA_site3779],9.95
4,AATGAATGAATTATTTTGCGCTTATTATAGGACGAA [XGTACX_negctrl_site218],9.67
5,ATATATATTAGGTATTGTACTTATATGCATATAAGT [XGTACX_site2700],9.57
6,TCTTTTATGTTTGTTTTTCCCTTTTTTTATGTTCCC [CACACA_negctrl_site1722],9.76
7,TTTTTTTATTATTAAAGTACTAAAAAATGAAAACTG [XGTACX_site6758],9.15
8,TATAATAAAAAATGTACACACATAAGAAAATTTAAT [CACACA_site2901],10.1
9,TGGGAATAAAAACACACACACACACCGATATATATA [CACACA_site5875],11.3
10,GACTATTTTAATATTTTACACACCATGTAAAATATA [CACACA_site9050],9.64
11,ACATAATAAAAAAAACGTACAAATAGGTTTTTCATA [XGTACX_site6645],9.82
12,TATATATATATATACACACACACCGTCCGTGTTAAA [CACACA_site2979],9.87
13,ATATATTAAAACCTAGTGCATTTGTACATATTTCAA,9.58
14,AGGTTAAAACATATATATATATATATATATATATAT [XGTACX_negctrl_site333],9.5
15,GCAGTCAAAAAGGAAAATATAAAAAAAGTATATGTG [GTGCAC_negctrl_site95],9.45
16,TTATACAGGACAATAGTGCACATAAATATATGTATA,9.87
17,TATCATTAATTTACATGTACATAAATGAATGTTTAT [XGTACX_site5608],9.51
18,TTCGTAATTTATATCACACACATATATCTATAATAA [CACACA_site7458],9.88
19,TTTTTTGTTATTAAAAGTACATTATATGCTAGTTAA [XGTACX_site8747],9.34
20,TTAAAAATATTATGTACACACATTTGAGATATTTGT [CACACA_site6953],9.79
21,TGAAATAAAATTTATACACACTTGCTAAATGATCAT [CACACA_site4265],9.62
22,ATTATATACATATATGCACACAAAAAAATATATATT [CACACA_site8508],9.79
23,AAAGGCTATCTTATATACTCCTAAAACGCGAACGTA [CACACA_negctrl_site396],9.25

row,Sequence,gcPBM binding intensity (ln)
1,AATATATAAATATTGTGTACTTATTTTTTTATATGT [XGTACX_site4377],9.73
2,ATAAATTCTATGTATACACACATATAAAATATAGAT [CACACA_site7296],9.86
3,AACAATTTATATAAAGCACACATGGGAAGGAAATAC [CACACA_site1712],10.1
4,TACAATTTAATATATACACACAAATAAATTATGCTT [CACACA_site856],9.62
5,ATATGTATGAAGTGTACACATATATTGTATTTTCTT [CACACA_site5503],9.95
6,GTAAGCACACATAGTTGTACATTAATAAAAATAAAT [XGTACX_site5876],9.94
7,TTCCTATAAAAAAACACACACATATAAATATATATA [CACACA_site2318],9.92
8,AAAAAAAACGAACACACACACATTCAATATAAAACA [CACACA_site6170],10.5
9,CAATGGTCATTTAGTTGTACTTAATTTTAAATCAAA [XGTACX_site4075],9.38
10,ATATATGACAAATGTAGTACAAATTATTGTATCATA [XGTACX_site3675],9.94
11,AGAATATTTAAAAAAGGTACACAAAAACCAAAATAA [XGTACX_site8569],9.76
12,TTATTGCATATTTACACACGTACTAATTTAAACAAG [CACACA_site971],9.78
13,TATTAATACAGACACACACACACACCCAATAAAATA [CACACA_site243],10.8
14,ATAAATTCATATATGAGTACTAAAAATATCTTTTTC [XGTACX_site5541],9.54
15,GATATTATGTGTTTGGTATTTTTTGATGTTGGTAGG [XGTACX_negctrl_site563],9.82
16,TAGAACAAATAAAACACACACATATAAATATAGATG [CACACA_site7325],10.2
17,TCTTTCTAAAGATGTAGTACAAAATAAATATAATAT [XGTACX_site6564],9.45
18,TTTATACAAACAACTTTATATTAATGTTTAACGGAG [GTGCAC_negctrl_site396],9.23
19,AAGGCAAACAAACACACACACATATATACATATATA [CACACA_site2122],10.4
20,TTATCACACCTTTTTTGTACGAAATAAAAAAAAAAA [XGTACX_site5564],9.12
